From patent US20050239864A1, “Novel tumor-selective chemotherapeutic agents” (priority 2004, published 2005)
Where two headings read alike, the source gives them in different places.

Columns and labels:
[1] = system: L1210 leukemia cells; test: 3H-thymidine incorporation proliferation assay in vitro; type: cell-based; settings: for IC50: 48-h proliferation assay, 3H-thymidine uptake, mean of two experiments; for potency against L1210 leukemia cells: in vitro
Method: (§1) The antitumor activity of the compounds was evaluated in vitro against L1210 leukemia and human SKOV-3 ovarian cancer cells (Table 4). L1210 leukemia cells and SKOV-3 (2.5×10^4 cells/well) in RPMI-1640 medium supplemented with 10% FCS medium were seeded in a 96-well plate. Drugs (10 uL) at increasing concentrations were added to each well, and the total volume was adjusted to 0.1 mL/well using the same medium. For L1210 leukemia cells, the plate was incubated for 24 h at 37° C. followed by addition of 10 uL of ^3H-thymidine (20 uCi/mL). For SKOV-3 ovarian cancer cells, the plate was incubated for 48 h at 37° C. followed by addition of 10 uL of ^3H-thymidine (20 uCi/mL). The plate was incubated for another 24 h. The cells were harvested, and radioactivity was counted using the Packard Matrix 96 beta counter. The results were expressed as the minimal concentration that inhibits ^3H-thymidine incorporation by 50% (IC50). Percent growth inhibition was calculated as follows: [(total cpm−experimental cpm)/total cpm]×100.

[2] = system: SKOV-3 human ovarian cancer cells; test: as above; type: cell-based; settings: for IC50: 72-h proliferation assay, 3H-thymidine uptake, mean of two experiments; for potency against SKOV-3 human ovarian cancer cells: in vitro
Method: as §1

[3] = system: colon 38 adenocarcinoma; settings: cited from earlier work
[4] = system: liver cancer; settings: one patient, 40 microg/m^2 for one cycle (days 1-5); cited from earlier work
[5] = system: various tumor models; settings: cited from earlier work
[6] = human, in vivo; cited from earlier work
[7] = free MTX in human, comparison value; cited from earlier work
[8] = system: MDA-MB 435 human breast cancer; settings: Dox-MH at optimal dose (3×23 mg/kg); cited from earlier work
[9] = system: colon 38 adenocarcinoma; test: Mice bearing colon 38 adenocarcinoma; type: in vivo
[10] = system: SKOV-3 human ovarian cancer; test: SKOV-3 human ovarian cancer xenograft in nude mice; type: in vivo
Description: Ovarian cancer is one of the most difficult to treat human cancers, and very few drugs are effective. YW-391 had significant activity in SKOV-3 human ovarian cancer xenograft (FIG. 8 and Table 9).

[11] = system: L1210 leukemia; test: L1210 leukemia tumor model, survival; type: in vivo, mice; settings: for % ILS: BDF1 mice, 10^5 cells i.p. day 0
[12] = Mice bearing colon 38 adenocarcinoma; type: in vivo; settings: BDF1, mouse, in vivo, intravenous; ×2 doses, mice bearing colon 38; read-out: maximal tolerated dose (MTD)
[13] = system: JC breast adenocarcinoma; test: Mice bearing JC breast adenocarcinoma; type: in vivo
Method: JC is an epithelial-like cell line established in 1983 from a spontaneous primary adenocarcinoma along the milk line (Capone et al., Cancer Immuno. Immunother. 1987, 25, 93-9). It produces tumors with papillary adenocarcinoma morphology in BALB/c mice. […] At the lowest dose of 0.16 mg/kg, (+)-YW-391 (LCK: 1.5) killed 10-times more tumor cells than Dox at 8 mg/kg (LCK: 0.78). (+)-YW-391 has the potential to be a powerful new treatment for human breast cancer.

[14] = system: Lewis lung carcinoma; test: Mice bearing Lewis lung carcinoma; type: in vivo; settings: 0.2 mg/kg i.v. days 1, 5, 12; listed as YW-391
[15] = 0.2 mg/kg q4d × 3, from Li et al. 1991
[16] = 0.05 mg/kg days 2, 9, from Li et al. 1991
[17] = 0.005 mg/kg q4d × 3, from Carter et al. 1996

O=C(Nc1ccc2[nH]c(C(=O)N3C[C@@H](CCl)c4c3cc(O)c3ccccc43)cc2c1)c1cc2cc(F)ccc2[nH]1 [(+)-YW-367]
IC50 [1]: 0.17 nM | IC50 [2]: 14 nM

CCN(CC)c1ccc2cc(C(=O)Nc3ccc4[nH]c(C(=O)N5C[C@@H](CCl)c6c5cc(OC(=O)Nc5ccccc5)c5[nH]cc(C)c65)cc4c3)oc2c1 [Carzelesin]
% Cured mice [3, 15]: 0% | % Tumor growth inhibition [3, 15]: 92% | duration of partial remission [4]: 8 months | regression of primary liver cancer [4]: 50% | antitumor activity in vivo ([5]; several colon adenocarcinomas and pediatric rhabdomyosarcomas): effective | time plasma concentration at 5 ng/mL [6]: 15 min | time plasma concentration of 1 ng/mL maintained [6]: approximately 1 h

CN(Cc1cnc2nc(N)nc(N)c2n1)c1ccc(C(=O)N[C@@H](CCC(=O)O)C(=O)O)cc1 [MTX, methotrexate]
half-life [7]: approximately 7 h

COC(=O)c1c(C)[nH]c2c(OC(=O)N3CCN(C)CC3)cc3c(c12)[C@H](CBr)CN3C(=O)c1cc2cc(OC)c(OC)c(OC)c2[nH]1 [KW-2189]
antitumor activity in vivo ([5]; P388, L1210, B16, colon 26, colon 38, LC-6 lung, ST-4, ST-40 stomach, LI-7 liver, PAN-02 pancreas, MX-1 breast): active

COc1cccc2c1C(=O)c1c(O)c3c(c(O)c1C2=O)C[C@@](O)(C(=O)CO)C[C@@H]3O[C@H]1C[C@H](N)[C@H](O)[C@H](C)O1 [Doxorubicin, doxorubicin]
antitumor response [8]: modest antitumor activity

N.N.[Cl][Pt][Cl] [Cisplatin]
% Cured mice ([9]; 2 mg/kg q4d × 3 i.v.): 0% | % Maximum weight loss ([9]; 2 mg/kg q4d × 3 i.v.): −8% | % Tumor growth inhibition ([9]; 2 mg/kg q4d × 3 i.v.): 42% | Log10 cell kill (LCK) ([9]; 2 mg/kg q4d × 3 i.v.): 0.30 | % Cured mice ([9]; 4 mg/kg day1 i.v.): 0% | % Maximum weight loss ([9]; 4 mg/kg day1 i.v.): −15% | % Tumor growth inhibition ([9]; 4 mg/kg day1 i.v.): 66% | Log10 cell kill (LCK) ([9]; 4 mg/kg day1 i.v.): 0.48

CC(=O)O[C@H]1C(=O)[C@@]2(C)[C@H]([C@H](OC(=O)c3ccccc3)[C@]3(O)C[C@H](OC(=O)[C@H](O)[C@@H](NC(=O)c4ccccc4)c4ccccc4)C(C)=C1C3(C)C)[C@]1(OC(C)=O)CO[C@@H]1C[C@@H]2O [Paclitaxel]
% Tumor growth inhibition ([10]; 25 mg/kg ip. days 15, 24, 33): 22%

Cc1c[nH]c2c1[C@@]13C[C@@H]1CN(C(=O)c1cc4cc(NC(=O)c5cc6ccccc6o5)ccc4[nH]1)C3=CC2=O [Adozelesin]
% Cured mice [3, 16]: 0% | % Tumor growth inhibition [3, 16]: 93% | Log10 cell kill (LCK) [3, 16]: 0.65 | antitumor activity in vivo ([5]; L1210 leukemia, B16 melanoma, M5076 sarcoma, colon 38, colon CX-1, lung LX-1, pancreas O2, ovarian 2780 in mice): very active

O=C(CCCCCN1C(=O)C=CC1=O)Oc1cc2c(c3ccccc13)[C@H](CCl)CN2C(=O)c1cc2cc(NC(=O)c3cc4cc(F)ccc4[nH]3)ccc2[nH]1 [(+)-YW-391]
IC50 ([1]; Mus musculus, L1210): 25 nM | potency against L1210 leukemia cells [1]: very potent | IC50 ([2]; Homo sapiens, SK-OV-3): 24 nM | potency against SKOV-3 human ovarian cancer cells [2]: very potent | % ILS ([11]; 0.2 mg/kg i.v. on day 1): 107% | % ILS ([11]; 0.4 mg/kg i.v. on day 1): 133% | active dose range (8-fold) ([11]; L1210 leukemia model, i.v.): 0.05 to 0.4 mg/kg | MTD [12]: 0.3 mg/kg | times more tumor cells killed than 5-FU ([9]; 0.15 mg/kg (LCK: 2.3) versus 5-FU 70 mg/kg (LCK: 1.1)): 10 | % Cured mice ([9]; 0.15 mg/kg q4d × 3 i.v.): 29% | % Maximum weight loss ([9]; 0.15 mg/kg q4d × 3 i.v.): −10% | % Tumor growth inhibition ([9]; 0.15 mg/kg q4d × 3 i.v.): 99% | Log10 cell kill (LCK) ([9]; 0.15 mg/kg q4d × 3 i.v.): 2.3 | % Tumor growth inhibition ([9]; 0.3 mg/kg q4d × 2 i.v.): 99% | Log10 cell kill (LCK) ([9]; 0.3 mg/kg q4d × 2 i.v.): 2.6 | % Cured mice ([9]; 0.3 mg/kg q4d × 2 i.v., tumor-free on day 60): 50% | times more tumor cells killed than Dox ([13]; 0.16 mg/kg (LCK: 1.5) versus Dox 8 mg/kg (LCK: 0.78)): 10 | % Maximum weight loss ([13]; 0.16 mg/kg q4d × 3 i.v.): −19% | % Tumor growth inhibition ([13]; 0.16 mg/kg q4d × 3 i.v.): 93% | Log10 cell kill (LCK) ([13]; 0.16 mg/kg q4d × 3 i.v.): 1.5 | % Maximum weight loss ([13]; 0.20 mg/kg q4d × 3 i.v.): −23% | Log10 cell kill (LCK) ([13]; 0.20 mg/kg q4d × 3 i.v.): 1.9 | % Tumor growth inhibition [14]: 84% | % Tumor growth inhibition ([10]; 0.13 mg/kg iv. days 15, 24, 33): 52%

O=C(CCCCCN1C(=O)C=CC1=O)Oc1cc2c(c3ccccc13)[C@H](CCl)CN2C(=O)c1cc2cc(NC(=O)c3cc4ccccc4o3)ccc2[nH]1 [(+)-YW-392]
potency against L1210 leukemia cells [1]: very potent | potency against SKOV-3 human ovarian cancer cells [2]: very potent | % Cured mice ([9]; 0.15 mg/kg q4d × 3 i.v.): 0% | % Maximum weight loss ([9]; 0.15 mg/kg q4d × 3 i.v.): −5% | % Tumor growth inhibition ([9]; 0.15 mg/kg q4d × 3 i.v.): 84% | % Cured mice ([9]; 0.3 mg/kg q4d × 3 i.v.): 0% | % Maximum weight loss ([9]; 0.3 mg/kg q4d × 3 i.v.): −7% | % Tumor growth inhibition ([9]; 0.3 mg/kg q4d × 3 i.v.): 90% | Log10 cell kill (LCK) ([9]; 0.3 mg/kg q4d × 3 i.v.): 1.7

O=c1[nH]cc(F)c(=O)[nH]1 [5-FU, 5-Fluorouracil]
% Cured mice ([9]; 70 mg/kg q4d × 3 i.v.): 0% | % Maximum weight loss ([9]; 70 mg/kg q4d × 3 i.v.): −7% | % Tumor growth inhibition ([9]; 70 mg/kg q4d × 3 i.v.): 95% | Log10 cell kill (LCK) ([9]; 70 mg/kg q4d × 3 i.v.): 1.1 | weight loss at which the mice begin to die ([9]; mice bearing colon 38): −7%

Cc1c[nH]c2c(O)cc3c(c12)[C@H](CCl)CN3C(=O)c1cc2cc(NC(=O)Nc3ccc4[nH]c(C(=O)N5C[C@@H](CCl)c6c5cc(O)c5[nH]cc(C)c65)cc4c3)ccc2[nH]1 [Bizelesin]
% Cured mice [3, 17]: 0% | Log10 cell kill (LCK) [3, 17]: 0.70 | antitumor activity in vivo ([5]; P388, L1210, B16, UACC-62, LOX IMVI, SK-MEL-3, CAKI-1, LX-1, Lewis lung, HT-29, colon 38, pancreas 02, MCF7, MX-1): effective
